In ChEMBL document CHEMBL4888484, “Replenishing the malaria drug discovery pipeline: Screening and hit evaluation of the MMV Hit Generation Library 1 (HGL1) against asexual blood stage Plasmodium falciparum ,using a nano luciferase reporter read-out” (2022):
The campaign covered roughly 150,000 compounds. About 540 (0.36%) showed an effect of 50% or more. The list shows a part of the results.

test system: Plasmodium falciparum; assay: Primary screen in NF54 nanoGlo assay, in single point, at 2uM, 72h; a lower Z score goes with more inhibition; format: functional, Erythrocyte; settings: timepoint 72 hour

Row | Compound | % Inhibition [%] | Z score
1 | CCCOc1c(Cl)cc(C(=O)N(Cc2cccc3ccccc23)[C@H]2CCS(=O)(=O)C2)cc1Cl | -12 | 1.59
2 | COc1ccccc1-c1nnc2c3ccc(Cl)cc3nc(N3CCN(C(=O)c4ccc(C)cc4)CC3)n12 | -13 | 1.38
3 | c1ccc2c(C[C@H]3COCCN3Cc3nncs3)c[nH]c2c1 | -14 | 1.42
4 | Cc1c(C(=O)NCc2nn(C)c3c2CN(C)CC3)cc(-c2ccc(F)cc2)n1C | -1 | 0.17
5 | Cc1cc(Br)c(OCc2ccc(-c3nnc4n3CCCCC4)cc2)c(Br)c1 | -6 | 0.81
6 | CC(C)CN(CCN(C)C)C(=O)Nc1cnn(C)c1 | -11 | 1.62
7 | CC(C)c1nnc2n1CCN(C(=O)Nc1cccc(F)c1)[C@H]2C | -9 | 1.09
8 | CCN(Cc1cnn(-c2ccc(C)c(C)c2)c1)C[C@H]1CCCO1 | -9 | 1.81
9 | O=C(c1cccs1)N(Cc1ccccn1)c1nc2ccccc2s1 | 4 | -0.46
10 | OCc1ccc(Cl)c(NCCOCC(F)(F)F)c1 | 5 | -0.78
11 | CN(C)C(=O)CC(=O)N1CCC=C(F)C1 | -8 | 1.08
12 | CC(C)(C)OC(=O)N1CCC[C@@H]1Cn1cc(C(=O)NC2CC2)nn1 | -15 | 1.6
13 | CC1CCN(Cc2nnnn2CCCC(=O)N[C@H](c2ccccn2)C(F)(F)F)CC1 | -9 | 1.23
14 | Cc1ccccc1CN1C(=O)c2cc(-c3ccco3)nn2C[C@@]1(C)C(=O)NCCC(C)C | 1 | -0.14
15 | CCCCC(C)C(=O)N1CCOCCC1C (stereo not given) | 13 | -1.29
16 | CC(C)CCc1cc(NC(=O)N[C@H]2CCN(c3ncccc3Cl)C2)n(C)n1 | 4 | -0.66
17 | Cc1ccc(-n2nc(C)c([C@@H]3CCC(=O)N3)c2C)c(C)c1 | 0 | -0.04
18 | Cc1ccc(-c2nc(C(=O)N3C(C)CN(C(=O)OC(C)(C)C)CC3C)cs2)o1 (stereo not given) | -9 | 0.79
19 | Cc1nn(C)c(C)c1CC(=O)Nc1nc2ccccc2[nH]1 | -2 | 0.39
20 | CCc1nocc1CNc1cc(C(F)(F)F)n(C)n1 | 5 | -0.84
21 | Cc1cc(C(=O)N2CCC[C@H](Oc3cnccn3)C2)c(C)o1 | -21 | 3.51
22 | O=C(CC1CCCO1)NCC1NCCc2ccccc21 (stereo not given) | 4 | -0.55

Row | Compound | % Inhibition [%] | Z score
23 | Cc1nnc(CN2CCN(C3CCCC3)[C@@H](C)C2)o1 | -9 | 1.04
24 | CCn1cc(C)c(C(=O)O)c1CC(=O)NCCOC | -10 | 1.32
25 | CCn1ccnc1CN1CC[C@]2(CCCO2)CCC1=O | -5 | 0.74
26 | Cn1cc(NC(=O)NC(C)(C)CC2Cc3ccccc3C2)cn1 | -4 | 0.71
27 | Cc1nc2ccccc2n1CCNC1CC(CF)(CF)C1 | -1 | 0.21
28 | Cc1ccc(-c2n[nH]cc2CN(C)Cc2cc(-c3ccccc3)on2)cc1C | -20 | 2.72
29 | CC(C)COCCC(=O)N1CCC[C@H](n2cccn2)C1 | -4 | 0.64
30 | CNc1ncccc1CN(C)C[C@H]1CCCN1C | -14 | 1.88
31 | O=S(=O)(NC[C@H](O)C(F)(F)F)c1ccc(Cl)s1 | -10 | 1.2
32 | CCN1CCN(C(=O)CCNc2c(-c3cccc(C)c3)nc3cnccn23)CC1 | -21 | 2.97
33 | Cc1ccc(Oc2nc(N3CCC(C)CC3)nc3c2CN(C(=O)c2cnc4ccccc4n2)CC3)cc1 | 1 | -0.24
34 | O=C(CCc1ccccc1)N1C[C@@H]2OC(=O)N(CCCN3CCOCC3)[C@@H]2C1 | -11 | 1.36
35 | O=C(NC(c1ccc(F)cc1)c1ccccn1)C1CC2C=CC1C2 (stereo not given) | 5 | -0.67
36 | COC(=O)CC1(NC(=O)c2cc(C)sn2)CCC1 | 10 | -1.23
37 | NC(=O)[C@H]1CCCN(CCNC(=O)Nc2cccc(-c3cscn3)c2)C1 | -5 | 1.14
38 | CNC(=O)[C@@H](C#N)C(=O)c1cccc(S(=O)(=O)NC2CCCC2)c1 | -12 | 1.38
39 | O=C(NCc1ccc(C(F)F)cc1)NCC1CCC(O)C1 (stereo not given) | 0 | -0.03
40 | COC(=O)c1ccc(C(=O)Nc2ccncc2NC(=O)c2ccc(C(=O)OC)cc2)cc1 | -2 | 0.35
41 | Cc1ccc(CN(C)C(=O)Cn2cnc3c2c(=O)n(C)c(=O)n3C)c(C)c1 | -10 | 1.34
42 | N#CC1(C(=O)Nc2ccc3c(c2)CCC3)CCCC1 | -4 | 0.7
43 | CCN(C(=O)CCN(C)Cc1ncc[nH]1)c1ccccc1 | 19 | -2.4
44 | CCC(CC)(NC(=O)C1CN(C(=O)c2nccc3ccsc23)C1)C(N)=O | -12 | 1.8

Row | Compound | % Inhibition [%] | Z score
45 | Cc1cnn(Cc2ccccc2Cl)c1NC(=O)N[C@H]1CCCNC1=O | -12 | 1.97
46 | CC1CN(C(=O)CC2CCCCC2(C)C)CCS1(=O)=O (stereo not given) | -11 | 1.25
47 | CN(CC(C)(C)CN)c1nc(-c2ccncc2)nc2c1CCC2 | -3 | 0.29
48 | CCN1C[C@@H](CN(C)C(=O)Nc2cc(C)c(Cl)cc2OC)CC1=O | -10 | 1
49 | CC(=O)c1ccc(C(=O)NC2CC(C)N(C3CC3)C2)[nH]1 (stereo not given) | -10 | 1.53
50 | Cc1nccn1CCNC(=O)C[C@@H]1NC(=O)N(CCc2ccccc2)C1=O | -5 | 0.67
51 | COc1cccc(CN2C(=O)[C@H]3C(C(=O)Nc4cccc(Cl)c4)[C@H]4C=C[C@@]3(O4)C2C(=O)NC2CCCCC2)c1 (stereo not given in full) | -8 | 1.28
52 | O=C(Nc1ccc(Cl)cc1)C1C2/C=C\CCCCC21 (stereo not given) | 0 | -0.06
53 | c1ccc(C2CC(c3cccs3)Nc3ncnn32)cc1 (stereo not given) | -12 | 1.81
54 | Cc1c(Br)c(C(=O)N(Cc2ccncc2)C2CC2)nn1C | -17 | 2.57
55 | CC(C(=O)NC1CCCC1)N1CC2CCC(O)C2C1 (stereo not given) | -3 | 0.31
56 | O=C1NC2(CCCC2)C(=O)N1Cc1cccc(F)c1 | -6 | 0.84
57 | CN(C)CCN(C(=O)Nc1ccc2c(c1)OCCO2)C1CCOCC1 | -1 | 0.2
58 | O=C(C1CCCn2nccc21)N1CC[C@@H]2CC[C@@]21c1cccnc1 (stereo not given in full) | -23 | 2.41
59 | CC[C@@H](O)CN1CC2CCC(NC(=O)OC(C)(C)C)C2C1 (stereo not given in full) | -4 | 0.65
60 | Cc1cc(=O)n(CC(=O)Nc2ccc3c(c2)OCCO3)c(N2CCCC2)n1 | -15 | 1.62
61 | CCNC(=O)N1CCN(C(=O)c2cnc(-c3ccccc3)nc2)CC1 | 1 | -0.18
62 | COCCn1cnnc1[C@H](C)NC(=O)c1cc(Cl)c[nH]1 | 2 | -0.29
63 | c1cn2nccc2c(N2CCCN(c3ccc4nncn4n3)CC2)n1 | -14 | 1.59
64 | CCc1cccc(C(=O)NCCc2nnc3n2CCN(C)C3=O)c1O | -7 | 0.87
65 | CC1COCCC1CNC(=O)N1CCNC(=O)CC1 (stereo not given) | 6 | -1.11
66 | CC[C@@H](c1cccnc1)N(C)Cc1cnc2c(-c3ccccc3)cnn2c1 | -10 | 1.22

Row | Compound | % Inhibition [%] | Z score
67 | O=C(Cn1cnnn1)N1CCC(F)(F)C1 | -19 | 2.6
68 | COc1ccc([C@@H]2Cn3nnc(C(=O)N4CCC(C(=O)NCC5CCCCC5)CC4)c3CO2)cc1 | -13 | 2.06
69 | CC1CCC(NC(=O)Cn2c3c(c(-c4ccccc4Cl)cc2=O)CCC3)CC1 (stereo not given) | -10 | 1.55
70 | COc1ccc(F)cc1S(=O)(=O)N1C2C=CCC1CC2 (stereo not given) | -9 | 1.09
71 | CCCN1CCC(N2CCN(S(=O)(=O)c3ccc(F)cc3)CC2)CC1 | -10 | 1.25
72 | CC(C)n1cnnc1CCNC(=O)CCc1csc(N)n1 | -9 | 1.56
73 | CCc1onc(C)c1C(=O)NCc1cnc(CC(C)C)s1 | 1 | -0.09
74 | COc1cc(NC(=O)N2Cc3cn[nH]c3CC(C)(C)C2)c(C)c(OC)c1 | 13 | -1.52
75 | Cn1cccc(C(=O)N2CCC(n3nccn3)CC2)c1=O | 21 | -2.39
76 | CC[C@H](C)N(CC(=O)N(Cc1ccccc1)Cc1sccc1C)C(=O)Cc1ccc(F)cc1 | -8 | 0.87
77 | Nc1nc(Cn2cc(Oc3ccccc3)c(=O)c(C(=O)O)c2)cs1 | -2 | 0.37
78 | Cc1cc(C)cc(C(=O)Nc2cccc(-c3noc(C4CC4)n3)c2)c1 | -17 | 2.88
79 | CCOC(=O)c1nc(CC(=O)Nc2cc(C)on2)no1 | -5 | 0.7
80 | CCc1ccnc(C(=O)N2CC(CF)C2)c1 | -12 | 1.67
81 | CN(C)c1ccc(C(=O)N2CCC(F)(F)CC2)nn1 | -7 | 0.95
82 | O=C(NCCn1cnccc1=O)c1ccccc1C1CCC1 | 2 | -0.34
83 | CCS(=O)(=O)N(C)C1CCN(C(=O)CC[C@H](O)c2ccc(C(C)(C)C)cc2)CC1 | -6 | 1.08
84 | Cc1c(C(=O)NCCN(C)C2CCCCC2)oc2ccc3c(c12)[C@@H](O)CC1(CCCCC1)O3 | 6 | -0.72
85 | CCc1nc2onc(C)c2c(=O)n1CC(=O)NCc1ccc(OC)cc1OC | -9 | 1.29
